The campaign covered roughly 39,000 compounds. About 220 (0.56%) showed activity. Some of the results follow.
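Further: static incubation at 37 °C against the wild-type strain, values averaged over two biological replicates.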

This assay concerns Escherichia coli K-12 BW25113. As to the kind of experiment: relative growth (OD600 normalised to plate interquartile mean) (fraction); higher = less growth inhibition, active = 0.2 or less. The settings on record: 50 µM; LB; incubation time: overnight (16-24 h).
As for `C#CCN(C)Cc1ccccc1.Cl`, the relative growth was inactive: 1.12. Under `CCCCCCCCCCCCCCCCCC(=O)NCCCCOn1c(CCCC)nc2c(N)nc3ccccc3c21` stands inactive: 1. In the case of `C[C@H]1CCCCO[C@H](CN(C)C(=O)Nc2ccc(C(F)(F)F)cc2)[C@@H](C)CN([C@@H](C)CO)C(=O)c2cc(NC(=O)Nc3ccc(F)cc3)ccc2O1` it was inactive: 0.986. Under `CCCNC(=O)N1C[C@@H](O)COC[C@H]2O[C@@H](CC(=O)N3CCOCC3)CC[C@@H]21` stands inactive: 0.996. Turning to `C[C@@H]1CN([C@@H](C)CO)C(=O)c2cccc(NS(=O)(=O)c3ccc(Cl)cc3)c2O[C@@H]1CN(C)Cc1ccc(Cl)c(Cl)c1`, the relative growth is inactive: 0.947. With `C[C@H]1CN([C@@H](C)CO)C(=O)c2cc(C#Cc3ccccn3)cnc2O[C@@H]1CN(C)C(=O)CCN1CCCCC1`, the relative growth was inactive: 0.995. Under `COc1ccc(S(=O)(=O)Nc2ccc3c(c2)C(=O)N([C@@H](C)CO)C[C@@H](C)[C@@H](CN(C)C(=O)Nc2ccc(F)cc2)OCCCC[C@H](C)O3)cc1` stands inactive: 1; under `C[C@@H]1CN([C@@H](C)CO)C(=O)c2cc(NS(C)(=O)=O)ccc2O[C@H]1CN(C)S(=O)(=O)c1cn(C)cn1`, inactive: 0.998.

`COc1ccc(S(=O)(=O)N[C@H]2C=C[C@H](CC(=O)N3CCN(c4ccccc4)CC3)O[C@@H]2CO)cc1`: the relative growth was inactive: 0.993. On to `COc1ccccc1-c1ccc2c(c1)O[C@H](CN(C)CC1CCOCC1)[C@@H](C)CN([C@@H](C)CO)S2(=O)=O`, for which the relative growth was inactive: 1. Under `CN1CCN(C(=O)[C@@H]2[C@@H](CO)[C@@H]3Cn4c(cccc4=O)[C@H]2N3Cc2ccncc2)CC1` stands inactive: 0.993; under `COc1ccc(S(=O)(=O)N(C)C[C@H]2Oc3ccc(NS(=O)(=O)c4cn(C)cn4)cc3C(=O)N([C@H](C)CO)C[C@H]2C)cc1`, inactive: 1.02. In the case of `C[C@H](CO)N1C[C@H](C)[C@@H](CN(C)S(=O)(=O)c2cccs2)Oc2ccc(NS(=O)(=O)c3ccccc3)cc2C1=O` it was inactive: 1.01; in that of `C[C@H](CO)N1C[C@H](C)[C@@H](CN(C)CC2CC2)Oc2c(NS(=O)(=O)c3cccs3)cccc2C1=O`, inactive: 1.01; in that of `Cn1c(N)c(S(=O)(=O)N2CCCC[C@@H]2c2cccnc2)c(=O)n(C)c1=O`, inactive: 1.01.

Consider `CN1CCC(CO)CC1`, for which the relative growth is inactive: 0.981. In the case of `C[C@@H]1CN([C@@H](C)CO)C(=O)CCCn2cc(nn2)CO[C@@H]1CN(C)S(=O)(=O)c1ccc(C#N)cc1` it was inactive: 0.986; in that of `CC(C)(C)OC(=O)C[C@@H]1CC=CC[C@H](CC(=O)N[C@@H](CO)Cc2ccccc2)C(=O)N2CCC[C@H]2COC1=O`, inactive: 0.989; in that of `CC(C)NC(=O)Nc1ccc2c(c1)C(=O)N([C@H](C)CO)C[C@@H](C)[C@H](CN(C)Cc1ccccc1)OCCCC[C@@H](C)O2`, inactive: 1.02. As for `C[C@@H]1CCCCO[C@H](CN(C)Cc2ccc(C(=O)O)cc2)[C@H](C)CN([C@@H](C)CO)C(=O)c2cc(NC(=O)CCC(F)(F)F)ccc2O1`, the relative growth is inactive: 0.98. On to `C[C@@H]1CCCCO[C@H](CN(C)S(=O)(=O)c2cn(C)cn2)[C@@H](C)CN([C@H](C)CO)C(=O)c2cc(NS(=O)(=O)c3ccc(F)cc3)ccc2O1`, for which the relative growth was inactive: 1.01. In the case of `C[C@@H]1CCCCO[C@@H](CN(C)Cc2ccncc2)[C@@H](C)CN([C@@H](C)CO)C(=O)c2cc(NC(=O)Nc3cccc4ccccc34)ccc2O1` it was inactive: 0.994; in that of `COc1cccc(S(=O)(=O)N(C)C[C@@H]2Oc3ncc(C#CCC(C)C)cc3C(=O)N([C@H](C)CO)C[C@@H]2C)c1`, inactive: 1.03. Under `COC(=O)c1cc(=O)nc2n1[C@H]1O[C@H](CO)[C@H](O)[C@H]1O2` stands inactive: 1.01; under `C[C@H](CO)N1C[C@H](C)[C@H](CN(C)S(C)(=O)=O)Oc2c(NS(=O)(=O)c3cccs3)cccc2C1=O`, inactive: 0.965; under `Cc1ccccc1NC(=O)CC(C)C`, inactive: 1. For `C[C@@H]1CN([C@H](C)CO)C(=O)c2cccc(NS(=O)(=O)c3ccc(F)cc3)c2O[C@H]1CN(C)CC1CC1`, the relative growth was inactive: 0.91. Under `C[C@H]1CN([C@@H](C)CO)C(=O)c2cccc(NS(=O)(=O)c3ccc(Cl)cc3)c2O[C@H]1CN(C)Cc1ccc(C(=O)Nc2ccccc2N)cc1` stands inactive: 1.03; under `C[C@@H]1CN([C@@H](C)CO)C(=O)c2cccc(NS(=O)(=O)c3ccccc3)c2O[C@@H]1CN(C)Cc1ccc(-c2ccccc2)cc1`, inactive: 1.01; under `C[C@H](CO)N1C[C@H](C)[C@H](CN(C)C(=O)Cc2cccnc2)Oc2ncc(C#CCc3ccccc3)cc2C1=O`, inactive: 0.984. Under `NCc1c[nH]c(=S)n1[C@H]1CCc2c(F)cc(F)cc2C1` stands inactive: 0.998; under `Cc1ccc(NC(=O)Nc2cc(C(F)(F)F)ccc2F)cc1Nc1ccc2c(c1)NC(=O)/C2=C\c1ccc[nH]1`, inactive: 1.02.

Consider `C[C@@H]1CN([C@H](C)CO)C(=O)Cc2cc(NS(=O)(=O)c3ccc(Cl)cc3)ccc2O[C@H]1CN(C)Cc1ccc(Oc2ccccc2)cc1`, for which the relative growth was inactive: 0.954. Under `O=C(Cc1ccccn1)NCC[C@@H]1CC[C@@H](NC(=O)CN2CCOCC2)[C@@H](CO)O1` stands inactive: 0.993. Under `Nc1ccn([C@@H]2O[C@H](CO)[C@@H](O)[C@@H]2O)c(=O)n1` stands inactive: 1.01; under `C[C@H]1CCCCO[C@@H](CN(C)C(=O)Nc2ccc(F)cc2)[C@@H](C)CN([C@@H](C)CO)C(=O)c2cc(NC(=O)c3ccccc3)ccc2O1`, inactive: 0.996.

As for `COc1ccc([Si](C)(C)[C@H]2[C@H](CCO)O[C@@]3(C(=O)N(Cc4ccc(N5C(=O)COc6ccccc65)cc4)c4ccccc43)[C@@H]2C)cc1`, the relative growth is inactive: 1.02. In the case of `Cn1c(=O)c2[nH]cnc2n(C)c1=O` it was inactive: 1.1; in that of `C[C@H](CO)N1C[C@H](C)[C@H](CN(C)Cc2ccc(C(=O)O)cc2)Oc2ccc(NC(=O)Cn3cnnn3)cc2CC1=O`, inactive: 1.01; in that of `C[C@@H]1CN([C@@H](C)CO)C(=O)c2cc(NC(=O)Nc3cccc4ccccc34)ccc2O[C@@H](C)CCCCO[C@H]1CN(C)Cc1ccncc1`, inactive: 0.985.

Values taken from the supplement of paper PMC9446081.
